In the supplement of paper PMC4604168 (melanoma cell lines):
The other results are listed elsewhere or left out. Repeats are few or missing, and single values can be far off.

Legend:
Assay in all cases: cell count relative to DMSO control; melanoma cells; higher = more viable cells
Details in all cases: library dose: standard library concentration; 72 h
SkMel28 = tested on: SkMel28
SkMel2 = tested on: SkMel2
SkMel30 = tested on: SkMel30
SkMel5 = tested on: SkMel5
UACC257 = tested on: UACC257
UACC62 = tested on: UACC62
WM115 = tested on: WM115
WM1716 = tested on: WM1716
WM1745 = tested on: WM1745
WM3526 = tested on: WM3526
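Further: cells treated in 1,536-well plates, then fixed and DAPI-stained, with nuclei counted from automated high-throughput microscope images.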

Row | SMILES | cell count (SkMel28) | cell count (SkMel2) | cell count (SkMel30) | cell count (SkMel5) | cell count (UACC257) | cell count (UACC62) | cell count (WM115) | cell count (WM1716) | cell count (WM1745) | cell count (WM3526)
1 | Cn1cnc2c(F)c(Nc3ccc(Br)cc3Cl)c(C(=O)NOCCO)cc21 [selumetinib] + C=CCn1c(=O)c2cnc(Nc3ccc(N4CCN(C)CC4)cc3)nc2n1-c1cccc(C(C)(C)O)n1 [MK1775] (first compound 0.075 µM, partner dose 0.1 µM) | 28.6% | 32.1% | 52.6% | 38.3% | 79.5% | 50.6% | 60% | 75.1% | 66.2% | 44.6%
2 | C[C@]1(O)C[C@@H](c2nc(-c3ccc4ccc(-c5ccccc5)nc4c3)c3c(N)nccn32)C1 + NC1(c2ccc(-c3nc4ccn5c(=O)[nH]nc5c4cc3-c3ccccc3)cc2)CCC1 [MK2206] (first compound 2 µM, partner dose 2 µM) | 29.3% | 71.6% | 92.9% | 62.2% | 97.1% | 57.1% | 75.6% | 86.8% | 64.6% | 77.1%
3 | COc1cc([C@@H]2c3cc4c(cc3[C@@H](O[C@@H]3O[C@@H]5CO[C@@H](C)O[C@H]5[C@H](O)[C@H]3O)[C@H]3COC(=O)[C@H]23)OCO4)cc(OC)c1O [etoposide] + C[C@]1(O)C[C@@H](c2nc(-c3ccc4ccc(-c5ccccc5)nc4c3)c3c(N)nccn32)C1 [OSI906] (first compound 0.1 µM, partner dose 2 µM) | 73.5% | 68.3% | 93.3% | 70.3% | 80.9% | 57.9% | 70.5% | 60.1% | 68.2% | 67.2%
4 | CCN(CC)CCNC(=O)c1c(C)[nH]c(/C=C2\C(=O)Nc3ccc(F)cc32)c1C [sunitinib] + Nc1nc(F)nc2c1ncn2[C@@H]1O[C@H](CO)[C@@H](O)[C@@H]1O [fludarabine] (first compound 2 µM, partner dose 1 µM) | 2.61% | 2.35% | 19.1% | 30.6% | 34.2% | 47.4% | 75.9% | 97.9% | 61.4% | 23.8%
5 | C[C@]1(O)C[C@@H](c2nc(-c3ccc4ccc(-c5ccccc5)nc4c3)c3c(N)nccn32)C1 + CNC(=O)c1cc(Oc2ccc(NC(=O)Nc3ccc(Cl)c(C(F)(F)F)c3)cc2)ccn1 [sorafenib] (first compound 2 µM, partner dose 2 µM) | 66% | 62% | 88% | 82.4% | 67.1% | 85.8% | 96.7% | 84.1% | 69.7% | 59.7%
6 | Cn1cnc2c(F)c(Nc3ccc(Br)cc3Cl)c(C(=O)NOCCO)cc21 [selumetinib] + NC(=O)Nc1cc(-c2cccc(F)c2)sc1C(=O)N[C@H]1CCCNC1 [AZD7762] (first compound 0.075 µM, partner dose 0.1 µM) | 17.5% | 45.1% | 44.1% | 84.3% | 109% | 70.6% | 51.4% | 57.5% | 54.8% | 40.4%
7 | Cn1cnc2c(F)c(Nc3ccc(Br)cc3Cl)c(C(=O)NOCCO)cc21 [selumetinib] + Cn1sc(=O)n(Cc2ccccc2)c1=O [TDZD-8] (first compound 0.075 µM, partner dose 2 µM) | 37.6% | 51.5% | 71.2% | 93.2% | 114% | 55.1% | 64.1% | 93.2% | 76.5% | 68.3%
8 | COc1cc([C@@H]2c3cc4c(cc3[C@@H](O[C@@H]3O[C@@H]5CO[C@@H](C)O[C@H]5[C@H](O)[C@H]3O)[C@H]3COC(=O)[C@H]23)OCO4)cc(OC)c1O [etoposide] + C[C@@H](N)c1ccc(C(=O)Nc2ccnc3[nH]ccc23)cc1 [RKI983] (first compound 0.1 µM, partner dose 2 µM) | 75.4% | 55.5% | 82.8% | 53.7% | 55.1% | 41.9% | 66.5% | 37.9% | 38.6% | 87.2%
9 | Cn1cnc2c(F)c(Nc3ccc(Br)cc3Cl)c(C(=O)NOCCO)cc21 [selumetinib] + OCc1c[nH]c2ccccc12 [Indole-3-carbinol] (first compound 0.075 µM, partner dose 4 µM) | 47.1% | 48.2% | 73.4% | 74.7% | 86.8% | 80.9% | 71.2% | 63.3% | 67.9% | 50.7%
10 | COc1cc([C@@H]2c3cc4c(cc3[C@@H](O[C@@H]3O[C@@H]5CO[C@@H](C)O[C@H]5[C@H](O)[C@H]3O)[C@H]3COC(=O)[C@H]23)OCO4)cc(OC)c1O [etoposide] + Nc1nc(F)nc2c1ncn2[C@@H]1O[C@H](CO)[C@@H](O)[C@@H]1O [fludarabine] (first compound 0.1 µM, partner dose 1 µM) | 3.76% | 1.03% | 14.5% | 22.4% | 29% | 65.3% | 77.3% | 64.8% | 75.5% | 19.9%
11 | C[C@]1(O)C[C@@H](c2nc(-c3ccc4ccc(-c5ccccc5)nc4c3)c3c(N)nccn32)C1 + Cc1nc(Nc2ncc(C(=O)Nc3c(C)cccc3Cl)s2)cc(N2CCN(CCO)CC2)n1 [dasatanib] (first compound 2 µM, partner dose 0.02 µM) | 45% | 71.8% | 78.9% | 48.6% | 90.6% | 55.9% | 66.1% | 57% | 23% | 86.3%
12 | C[C@]1(O)C[C@@H](c2nc(-c3ccc4ccc(-c5ccccc5)nc4c3)c3c(N)nccn32)C1 + C=CCNC1=C2C[C@@H](C)C[C@H](OC)[C@H](O)[C@@H](C)/C=C(\C)[C@H](OC(N)=O)[C@@H](OC)/C=C\C=C(/C)C(=O)NC(=CC1=O)C2=O [Tanespimycin] (first compound 2 µM, partner dose 0.01 µM) | 46% | 99.5% | 81.7% | 63.8% | 95.3% | 51.2% | 26.8% | 82.7% | 44.5% | 61.3%
13 | CCN(CC)CCNC(=O)c1c(C)[nH]c(/C=C2\C(=O)Nc3ccc(F)cc32)c1C [sunitinib] + OCCn1cc(-c2cnc3nnn(Cc4ccc5ncccc5c4)c3n2)cn1 [PF04217903] (first compound 2 µM, partner dose 5 µM) | 63.1% | 79.1% | 77.8% | 54.1% | 84.3% | 73.2% | 72.2% | 78.8% | 71.9% | 58.2%
14 | COc1cc([C@@H]2c3cc4c(cc3[C@@H](O[C@@H]3O[C@@H]5CO[C@@H](C)O[C@H]5[C@H](O)[C@H]3O)[C@H]3COC(=O)[C@H]23)OCO4)cc(OC)c1O [etoposide] + Cn1sc(=O)n(Cc2ccccc2)c1=O [TDZD-8] (first compound 0.1 µM, partner dose 2 µM) | 74.3% | 74.4% | 72% | 71.6% | 90.4% | 54.5% | 86.5% | 60% | 108% | 78.7%
15 | CCN(CC)CCNC(=O)c1c(C)[nH]c(/C=C2\C(=O)Nc3ccc(F)cc32)c1C [sunitinib] + Cn1cncc1[C@@](N)(c1ccc(Cl)cc1)c1ccc2c(c1)c(-c1cccc(Cl)c1)cc(=O)n2C [tipifarnib] (first compound 2 µM, partner dose 0.05 µM) | 44% | 54.7% | 50.7% | 34% | 90.1% | 39.4% | 42% | 71.3% | 36.5% | 47.6%
16 | C[C@]1(O)C[C@@H](c2nc(-c3ccc4ccc(-c5ccccc5)nc4c3)c3c(N)nccn32)C1 + NC(=O)Nc1cc(-c2cccc(F)c2)sc1C(=O)N[C@H]1CCCNC1 [AZD7762] (first compound 2 µM, partner dose 0.1 µM) | 47.3% | 84.7% | 79.1% | 91.7% | 100% | 61.9% | 60.4% | 69.8% | 51.6% | 66%
17 | Cn1cnc2c(F)c(Nc3ccc(Br)cc3Cl)c(C(=O)NOCCO)cc21 [selumetinib] + CCCCCCCCc1ccc(CCC(N)(CO)CO)cc1 [fingolimod] (first compound 0.075 µM, partner dose 10 µM) | 1.3% | 0.324% | 10.9% | 37.6% | 85.8% | 21.7% | 12.2% | 48.2% | 7.99% | 16.9%
18 | C[C@]1(O)C[C@@H](c2nc(-c3ccc4ccc(-c5ccccc5)nc4c3)c3c(N)nccn32)C1 + Cn1nnc2c(C(N)=O)ncn2c1=O [temozolomide] (first compound 2 µM, partner dose 10 µM) | 43.1% | 88.1% | 70.1% | 72% | 93.9% | 50.3% | 91.7% | 51.1% | 64.8% | 63%
19 | COc1cc([C@@H]2c3cc4c(cc3[C@@H](O[C@@H]3O[C@@H]5CO[C@@H](C)O[C@H]5[C@H](O)[C@H]3O)[C@H]3COC(=O)[C@H]23)OCO4)cc(OC)c1O [etoposide] + COc1ccc(Cl)c(Nc2nc3ccccc3nc2NS(=O)(=O)c2cccc(NC(=O)C(C)(C)N)c2)c1 [XL147] (first compound 0.1 µM, partner dose 4 µM) | 76.6% | 73.3% | 105% | 81.1% | 81.8% | 64.8% | 86.4% | 67.5% | 81.7% | 95.8%
20 | C[C@]1(O)C[C@@H](c2nc(-c3ccc4ccc(-c5ccccc5)nc4c3)c3c(N)nccn32)C1 + Nc1ncn([C@H]2C[C@H](O)[C@@H](CO)O2)c(=O)n1 [decitabine] (first compound 2 µM, partner dose 0.5 µM) | 86.3% | 92.1% | 94.5% | 66.7% | 82.9% | 59% | 77.3% | 77.4% | 50.6% | 64.2%
21 | Cn1cnc2c(F)c(Nc3ccc(Br)cc3Cl)c(C(=O)NOCCO)cc21 [selumetinib] + CS(=O)(=O)CCNCc1ccc(-c2ccc3ncnc(Nc4ccc(OCc5cccc(F)c5)c(Cl)c4)c3c2)o1 [lapatinib] (first compound 0.075 µM, partner dose 4 µM) | 44.8% | 54.9% | 57.3% | 57.6% | 99.9% | 34% | 73.4% | 70.4% | 61.7% | 58.8%
